Data: PubChem BioAssay AID2546 (National Center for Advancing Translational Sciences (NCATS), 2010)
The campaign covered roughly 310,000 compounds. About 11,000 (3.5%) were called active. The inconclusive results got no clear call from the source; some entries with a clear call stand among them for comparison. Calls come from the whole dose curve; as a rule, active = well fitted inhibition curve with a large enough effect; inconclusive = small, poorly fitted or top-dose-only effect, or effect the other way; inactive = flat fitted curve, though single readings scatter. Potencies of inconclusive entries are left out as doubtful fits.

Test: VP16 counterscreen qHTS for inhibitors of ROR gamma transcriptional activity;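 note: Gal4-VP16 expression switched on by copper sulfate through the metallothionein promoter; nearly all actives have a fitted effect of over 50% in size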
Settings: Drosophila S2 Gal4-VP16 UAS-luciferase, luminescence, 20 h; series mostly up to 53.6 µM
Potency is the fitted concentration of half-maximal effect; tags give direction and shape of the fitted curve.

Structure (SMILES) | Potency
COc1ccc2c(c1)CCc1c-2nc2ccccc2c1N1CCOCC1 | inconclusive [inhibitor, partial curve]
O=c1c(O)c(-c2cc(O)c(O)c(O)c2)oc2cc(O)ccc12 | inactive
S=c1[nH]nc(CN2CCCCC2)n1Cc1ccccc1 | active: 17.8 µM
COc1ccc(/C=C2\CCC(C3CCCC3)C2=O)c(OC)c1OC (stereo unspecified) | inactive
O=C(Cn1c(=O)n(CCC(=O)N2CCc3ccccc3C2)c(=O)c2ccccc21)NCC1CCCO1 (stereo unspecified) | inactive
CCn1c(SCC(=O)NC(=O)NCc2ccco2)nc2sc(C)c(C)c2c1=O | inconclusive [inhibitor, single point]
CCc1nc(SCC(=O)Nc2nccs2)c2oc3ccccc3c2n1 | inconclusive [inhibitor, single point]
Cc1ccc(/C=C/C(=O)NC2=NCCS2)cc1 | inconclusive [inhibitor, single point]
COc1cccc(OCCc2c(C)n[nH]c2C)c1 | inconclusive [inhibitor, single point]
Cc1cc(C)nc(N(C#N)CN2C(=O)c3ccccc3S2(=O)=O)n1 | inconclusive [inhibitor, single point]
Cc1nnsc1C(=O)Nc1ccc(S(=O)(=O)N2CCC(C)CC2)cc1 | inactive
Cc1onc(-c2ccccc2Cl)c1C(=O)NCc1nc(-c2ccc(C(F)(F)F)cc2)no1 | inconclusive [inhibitor, single point]
CCOC(=O)C(NC(=O)c1ccccc1)(N1CCOCC1)C(F)(F)F (stereo unspecified) | inactive
COc1ccc(N(CC(=O)Nc2cccc(C(C)=O)c2)S(=O)(=O)c2ccc(NC(C)=O)cc2)cc1 | inactive
COC(=O)CN1C(=S)N(c2ccc(Cl)cc2)C(=O)C1CC(=O)Nc1ccc(F)cc1 (stereo unspecified) | inactive
O=C(Nc1ccc(O)c(C(=O)O)c1)Oc1ccccc1 | inconclusive [inhibitor, single point]
Cc1ccc(NC(=S)NNC(=O)CSc2nnc(-c3ccc(Cl)cc3)n2C2CCCCC2)cc1 | inconclusive [inhibitor, single point]
CCOC(=O)N1CCN(C(=S)Nc2cccc(C)c2)CC1 | inactive
Cc1c(C(=O)N2CCN(C)CC2)oc2ccc(Br)cc12 | inactive
O=C(CN1CC[n+]2c(-c3ccccc3)csc21)c1ccc(Br)cc1 | inconclusive [inhibitor, single point]
Cc1cccc(N/N=C2/COC(C)(C)CC2=O)c1 | inconclusive [inhibitor, single point]
Cc1ccc(/C=N/NC(=O)c2ccc(-n3cccc3)cc2)o1 | inconclusive [inhibitor, single point]
COc1ccc(/C=N/NC(=O)c2cc(O)c(O)c(O)c2)cc1Cn1cc([N+](=O)[O-])cn1 | inconclusive [activator, single point]
COc1ccc(C2/C(=C(\O)c3ccc4c(c3)CC(C)O4)C(=O)C(=O)N2Cc2cccnc2)c(OC)c1 (stereo unspecified) | inactive

Structure (SMILES) | Potency
C/C(=N\NC(=O)C(=O)Nc1cccc(Cl)c1C)c1ccncc1 | inactive
CCOc1ccccc1NC(=S)N1CCN(c2cccc(C)c2C)CC1 | active: 4.47 µM
COc1ccc(/C=C2\CCC(C3CCCC3)C2=O)cc1Cn1cccn1 (stereo unspecified) | inconclusive [activator, full curve, poor fit]
O=C(N/N=C/c1ccccn1)c1ccc(Br)o1 | inconclusive [inhibitor, single point]
C/C=N/NC(=O)c1cc(Br)ccc1O | inconclusive [inhibitor, single point]
COc1cc(OC)cc(C(=O)N(Cc2cc3cc(C)ccc3[nH]c2=O)C(C)C)c1 | inconclusive [inhibitor, partial curve]
CC(=O)c1cccc(NC(=O)c2ccc3c(Cl)c4c(nc3c2)CCCC4)c1 | inconclusive [inhibitor, full curve]
CC(=O)n1cc([C@@H]2C=C(C(=O)N3CCN(Cc4ccc5c(c4)OCO5)CC3)O[C@H](OCCCCO)C2)c2ccccc21 | inactive
CCOC(=O)Cc1nnc(NC(=O)CSc2nnc3c(n2)[nH]c2ccccc23)s1 | inconclusive [inhibitor, single point]
CCOc1ccc(N2C(=O)CC(N3CCN(c4ccc(Cl)cc4)CC3)C2=O)cc1 (stereo unspecified) | inactive
Cn1c(C2CCCCC2)nc2ccccc21 | inconclusive [inhibitor, single point]
Cn1c(=O)oc2cc(S(=O)(=O)N3CCCC(C(=O)Nc4nccs4)C3)ccc21 (stereo unspecified) | inactive
COc1ccc(NC(=S)NCCC2=CCCCC2)cc1OC | active: 12.6 µM
CN(C)S(=O)(=O)c1cccc(NC(=S)NN=C(Cc2ccccc2)Cc2ccccc2)c1 | inconclusive [inhibitor, single point]
COc1ccc(N(CC(=O)NN=C2CCCCCCC2)S(=O)(=O)c2ccccc2)cc1 | inconclusive [inhibitor, single point]
CCOC(=O)C1=C(C)N=C2SC(C(=O)OC)=CC(=O)N2C1c1ccc(OC)cc1 (stereo unspecified) | inconclusive [inhibitor, single point]
CCCCCC(=O)Cc1cc(O)cc2c1C(=O)Oc1cc(O)c(C(=O)O)c(CCCCC)c1O2 | inactive
Cc1ccc(C(C)NC(=S)NCc2ccc(F)cc2)c(C)c1 (stereo unspecified) | active: 4.47 µM
O=c1ccc2ccc(Oc3ccc([N+](=O)[O-])cc3[N+](=O)[O-])cc2o1 | inconclusive [inhibitor, single point]
CCOc1ccccc1/C=N/Nc1cc(C)nc2ccc(C)cc12 | inconclusive [inhibitor, single point]
O=c1[nH]c2ccc(NC(=S)NC3CCCCC3)cc2[nH]1 | inactive
O=C(COc1ccc(Br)cc1Br)NC(=O)NC1CCCC1 | inconclusive [activator, partial curve, poor fit]
Cc1nn(-c2ccccc2)c(C)c1NC(=O)COc1ccc2ccccc2c1 | inactive
CCOc1nc(-c2ccncc2)nc2ccccc12 | inconclusive [inhibitor, single point]

Structure (SMILES) | Potency
CC1=C(c2ccccc2)SC2=NCCN21 | inactive
Cc1nc2ccc(NC(=O)CSc3nnc(C)s3)cc2[nH]1 | inactive
COc1ccc(OCC(=O)N2CCN(c3nnc(-c4ccc(C)cc4)c4ccccc34)CC2)cc1 | inconclusive [inhibitor, single point]
COc1ccc(N(C)C(=O)c2cc3c(s2)-c2ccccc2OC3)c(OC)c1 | inactive
CCc1ccc2c(c1)C1(C(=O)N2)N2CCCC2C(C(=O)c2ccc3ccccc3c2)C12C(=O)Nc1ccccc12 (stereo unspecified) | inconclusive [inhibitor, single point]
Cc1cc(=O)n(C)c(=O)n1CCCCCCOc1cccc([N+](=O)[O-])c1 | inconclusive [inhibitor, single point]
COc1ccccc1C(=O)C1CCCN(C(=O)c2ccccc2C(C)=O)C1 (stereo unspecified) | inconclusive [inhibitor, single point]
O=C(Nc1ccc(N2CCCCC2)cc1)c1ccc([N+](=O)[O-])o1 | inconclusive [inhibitor, single point]
CC(=O)c1cn(CC(=O)Nc2c(C)cccc2C)c2ccccc12 | active: 7.08 µM
Cc1[nH]n(-c2ccc([N+](=O)[O-])cc2)c(=O)c1C=NCCN1CCN(C(=O)c2ccc(Br)cc2)CC1 | inconclusive [inhibitor, single point]
COc1cc(NC(=O)CN(c2ccc(C)cc2)S(=O)(=O)c2c(C)noc2C)cc(OC)c1 | inconclusive [inhibitor, partial curve]
COc1cc(C(CCN2CCCC2)c2c(OC)cc(OC)c3c(-c4ccccc4)cc(=O)oc23)cc(OC)c1OC (stereo unspecified) | inconclusive [activator, single point]
COc1ccc([C@@H]2Sc3cc(OC)ccc3N(CCN(C(C)C)C(C)C)C(=O)[C@H]2OC(C)=O)cc1 | inactive
Cc1ccc2c(c1)c1ncn(Cc3ccc(F)cc3)c(=O)c1n2C | inconclusive [inhibitor, single point]
CC(C)CC1=NN(C(=O)c2ccncc2)C(O)(C(F)(F)F)C1 (stereo unspecified) | inconclusive [inhibitor, single point]
CC(C)(C)c1cc[n+](-c2[nH]c(=O)sc2/C=N/N=C(\[O-])c2cccnc2)cc1 | inconclusive [inhibitor, single point]
CCOC(=O)c1sc(NC(=O)Nc2ccccc2F)nc1C | active: 8.91 µM
C[C@H](NCCC(c1ccccc1)c1ccccc1)c1ccccc1 | inactive
COCCNC(=O)c1ccc(Cl)c(Cl)c1 | inactive
O=C(Nc1ncc([N+](=O)[O-])s1)C1COc2ccccc2O1 (stereo unspecified) | inconclusive [inhibitor, single point]
Cc1[nH]c2ccccc2c1CN1CCc2ccccc2C1 | inconclusive [inhibitor, single point]
O=S(=O)(NC(=S)NC1CCCCC1)c1ccc(Br)cc1 | inconclusive [inhibitor, single point]
Cc1ccc(S(=O)(=O)N2CCN(c3ccnc4cc(Cl)ccc34)CC2)cc1C | inconclusive [inhibitor, single point]
